# From publication PMC11995724, “Antibiotic target discovery by integrated phenotypic and activity-based profiling of electrophilic fragments” (Cell chemical biology, 2025)
# Hit rate of the full screen: of about 3,200 compounds, about 110 (3.4%) showed an effect of 50% or more. Some of the results follow.
# Test system: T1, V. cholerae SAD30
# T1 construct: SAD30
# Design: species or system S. aureus MSSA476 (TSB) or V. cholerae SAD30 (LB); 384-well bacterial growth screen at 25 uM, OD600 relative to DMSO control
# Conditions: relative growth, OD600, LB; 25 µM; inhibitor
row,SMILES,% of control remaining
1,"C=CC(=O)Nc1ccccc1CNS(C)(=O)=O [3-F16, N-[2-(methanesulfonamidomethyl)phenyl]prop-2-enamide]",93.1483%
2,"O=C(CCl)N1CCN(S(=O)(=O)c2ccc([N+](=O)[O-])cc2)CC1 [4-J07, 2-chloro-1-[4-(4-nitrobenzenesulfonyl)piperazin-1-yl]ethan-1-one]",97.8219%
3,"COc1ccc(S(=O)(=O)N2CCSSCC2)cc1C [10-D11, 5-(4-methoxy-3-methylbenzenesulfonyl)-1,2,5-dithiazepane]",86.0316%
4,"C=CC(=O)N1CCC(C(=O)N2CCCC(C)(CC)C2)CC1 (stereo not drawn) [2-J10, 1-[4-(3-ethyl-3-methylpiperidine-1-carbonyl)piperidin-1-yl]prop-2-en-1-one]",91.2767%
5,"C=CC(=O)NCCc1nc(C)cs1 [2-D05, N-[2-(4-methyl-1,3-thiazol-2-yl)ethyl]prop-2-enamide]",94.8278%
6,"C=CC(=O)N1CCCC1 [1-G08, 1-(pyrrolidin-1-yl)prop-2-en-1-one]",91.9283%
7,"CN(C)C1=NC(N)=NC(=C(C#N)C(=O)CCl)N1 [10-P20, 2-[4-amino-6-(dimethylamino)-1,2-dihydro-1,3,5-triazin-2-ylidene]-4-chloro-3-oxobutanenitrile]",100.526%
8,"N#CC(=Cc1cc(F)ccc1F)C(=O)NC1CCCCC1 [8-G08, 2-cyano-N-cyclohexyl-3-(2,5-difluorophenyl)prop-2-enamide]",68.7288%
9,"C=CC(=O)Nc1cnc(C2CCCC2)nc1 [1-G17, N-(2-cyclopentylpyrimidin-5-yl)prop-2-enamide]",90.284%
10,"Cc1ccc(C(=O)CCl)o1 [10-A09, 2-chloro-1-(5-methylfuran-2-yl)ethan-1-one]",117.514%
11,"COc1ccc(CNC(=O)CCl)cc1OC [5-O11, 2-chloro-N-[(3,4-dimethoxyphenyl)methyl]acetamide]",100.704%
12,"CC(Cl)C(=O)N1CCCN2c3ccccc3CC2C1 (stereo not drawn) [7-G06, 1-{1H,2H,3H,4H,5H,11H,11aH-[1,4]diazepino[1,2-a]indol-2-yl}-2-chloropropan-1-one]",76.3919%
13,"C=CC(=O)NC1(c2cc(C)no2)CCOCC1 [1-F18, N-[4-(3-methyl-1,2-oxazol-5-yl)oxan-4-yl]prop-2-enamide]",107.949%
14,"Cc1cc(C=C(C#N)C(=O)Nc2nccs2)cc(C)c1O [9-D13, 2-cyano-3-(4-hydroxy-3,5-dimethylphenyl)-N-(1,3-thiazol-2-yl)prop-2-enamide]",84.7723%
15,"Cc1ccc(C)c(Sc2ccc(NC(=O)CCl)cc2)c1 [4-H09, 2-chloro-N-{4-[(2,5-dimethylphenyl)sulfanyl]phenyl}acetamide]",88.1604%
16,"CC(Cl)C(=O)Nc1ccc(F)c(F)c1F (stereo not drawn) [4-O08, 2-chloro-N-(2,3,4-trifluorophenyl)propanamide]",95.579%
17,"C=CC(=O)N(C)CC(=O)N1CCN(c2nsc3ccccc23)CC1 [2-N10, N-{2-[4-(1,2-benzothiazol-3-yl)piperazin-1-yl]-2-oxoethyl}-N-methylprop-2-enamide]",84.792%
18,"CC(Cl)C(=O)c1ccc2c(c1)CCC2 (stereo not drawn) [10-M08, 2-chloro-1-(2,3-dihydro-1H-inden-5-yl)propan-1-one]",102.085%
19,"C=CC(=O)NCc1ccc(-n2ccnc2)cc1 [1-M18, N-{[4-(1H-imidazol-1-yl)phenyl]methyl}prop-2-enamide]",86.3976%
20,"C=CC(=O)Nc1c(C)cnn1CC1CC1 [1-M19, N-[1-(cyclopropylmethyl)-4-methyl-1H-pyrazol-5-yl]prop-2-enamide]",84.4544%
21,"COc1ccc(C=C(C#N)C(=O)Nc2cccnc2)cc1OC [8-M05, 2-cyano-3-(3,4-dimethoxyphenyl)-N-(pyridin-3-yl)prop-2-enamide]",74.847%
22,"Cn1ccc(C(=O)CCl)c1 [10-D08, 2-chloro-1-(1-methyl-1H-pyrrol-3-yl)ethan-1-one]",103.176%
23,"COc1ccc(S(=O)(=O)N2CCCCC2)cc1NC(=O)CCl [6-G13, 2-chloro-N-[2-methoxy-5-(piperidine-1-sulfonyl)phenyl]acetamide]",82.0552%
24,"C=CC(=O)N1CCC(C)C1 (stereo not drawn) [2-H17, 1-(3-methylpyrrolidin-1-yl)prop-2-en-1-one]",91.7398%
25,"COc1ccc2[nH]c3c(c2c1)CCCC3NC(=O)CCl (stereo not drawn) [5-G07, 2-chloro-N-(6-methoxy-2,3,4,9-tetrahydro-1H-carbazol-1-yl)acetamide]",96.8372%
26,"CC(Cl)C(=O)N1CCN(c2ccccc2)CC1.Cl (stereo not drawn) [4-E14, 2-chloro-1-(4-phenylpiperazin-1-yl)propan-1-one hydrochloride]",93.5087%
27,"CCc1ccc(Cc2cnc(NC(=O)CCl)s2)cc1 [4-F19, 2-chloro-N-{5-[(4-ethylphenyl)methyl]-1,3-thiazol-2-yl}acetamide]",82.8122%
28,"Cc1c(C=C(C#N)C(=O)Nc2cnc3ccccc3c2)cc(C#N)n1C [9-N15, 2-cyano-3-(5-cyano-1,2-dimethyl-1H-pyrrol-3-yl)-N-(quinolin-3-yl)prop-2-enamide]",86.5398%
29,"C=CC(=O)N1CCN(S(=O)(=O)c2ccc(C(C)(C)C)cc2)CC1 [3-A19, 1-[4-(4-tert-butylbenzenesulfonyl)piperazin-1-yl]prop-2-en-1-one]",119.79%
30,"CC(Cl)C(=O)N1C[C@@H]2CCC[C@@]2(c2nc(-c3cnccn3)no2)C1 (mixture of isomers) [7-C03, rac-1-[(3aR,6aR)-3a-[3-(pyrazin-2-yl)-1,2,4-oxadiazol-5-yl]-octahydrocyclopenta[c]pyrrol-2-yl]-2-chloropropan-1-one]",101.239%
